# According to the supplement of paper PMC8728848:
# The list shows a part of the results.
# B1: SP16664D-bth-476-27-476 (Bacteroides thetaiotaomicron) (protein)
# chain: DDLEVGKNIDESAYSGIYENNAYLRDGKSNLVSKVVELHGETYATTVKMGLSKTPNTATSAKVKIDAAYLETYNKAHNTDFALYPQDLVTFANEGILTVNANTKSAEVEMTIRAGEGLQEDKTYAIPVAISDQSSDITIKDEDAKHCIYLVKDMRNAGDAYKGEGVMQGYLFFEVNDVNPLNTLSFQLENGKLLWDVVVLFAANINYDAEAGRPRVQCNPNVQYLLDNNETLLQPLRRRGVKVLLGLLGNHDITGLAQLSEQGAKDFAREVAQYCKAYNLDGVNYDDEYSNSPDLSNPSLTNPSTAAAARLCYETKQAMPDKLVTVFDWGQMYGVATVDGVDAKEWIDIVVANYGSAAYPIGQMTKKQCSGISMEFNLGGGGSLSASKAQSMIDGGYGWFMGFAPSPAKYGSVFSRLQGGGEVLYGSNVAAPTIFYKKNDPTPYKYPDDL
# What was measured:
# Assay in all cases: glycan array binding signal (z-score within array); higher = stronger binding
# Conditions in all cases: glycan notation: IUPAC condensed, linker removed
# [1] = biological target: Gal(b1-3)GalNAc(b1-3)Gal(a1-4)Gal(b1-4)Glc
# Procedure, shortened: (§1)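 Columns mapping to the same glycan were averaged after glycan names were converted to IUPAC-condensed notation. The data come from 3228 arrays in the Consortium for Functional Glycomics database, limited to those with an available protein sequence. Binding is reported as a within-array Z-score averaged across arrays of one protein sequence and across linkers.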
# [2] = biological target: Gal(b1-3)GalNAc(b1-4)Gal(b1-4)Glc
# Procedure, shortened: as §1
# [3] = biological target: Gal(b1-3)GalNAc(b1-4)[Neu5Ac(a2-3)]Gal(b1-4)Glc
# Procedure, shortened: as §1
# Gal(b1-3)GlcNAc = biological target: Gal(b1-3)GlcNAc
# Procedure, shortened: as §1
# [4] = biological target: Gal(b1-3)GlcNAc(a1-3)Gal(b1-4)GlcNAc
# Procedure, shortened: as §1
# [5] = biological target: Gal(b1-3)GlcNAc(a1-6)Gal(b1-4)GlcNAc
# Procedure, shortened: as §1
# Gal(b1-3)GlcNAc(b1-2)Man = biological target: Gal(b1-3)GlcNAc(b1-2)Man
# Procedure, shortened: as §1
# [6] = biological target: Gal(b1-3)GlcNAc(b1-2)Man(a1-3)[Gal(b1-3)GlcNAc(b1-2)Man(a1-6)]Man(b1-4)GlcNAc(b1-4)GlcNAc
# Procedure, shortened: as §1
# [7] = biological target: Gal(b1-3)GlcNAc(b1-2)Man(a1-3)[Gal(b1-3)GlcNAc(b1-2)Man(a1-6)]Man(b1-4)GlcNAc(b1-4)[Fuc(a1-6)]GlcNAc
# Procedure, shortened: as §1
# [8] = biological target: Gal(b1-3)GlcNAc(b1-2)Man(a1-3)[GlcNAc(b1-4)][Gal(b1-3)GlcNAc(b1-2)Man(a1-6)]Man(b1-4)GlcNAc(b1-4)GlcNAc
# Procedure, shortened: as §1
# [9] = biological target: Gal(b1-3)GlcNAc(b1-2)[Gal(b1-3)GlcNAc(b1-6)]Man(a1-6)[Gal(b1-3)GlcNAc(b1-2)Man(a1-3)]Man(b1-4)GlcNAc(b1-4)GlcNAc
# Procedure, shortened: as §1
# [10] = biological target: Gal(b1-3)GlcNAc(b1-3)Gal(b1-3)GlcNAc
# Procedure, shortened: as §1
# [11] = biological target: Gal(b1-3)GlcNAc(b1-3)Gal(b1-4)Glc
# Procedure, shortened: as §1
# [12] = biological target: Gal(b1-3)GlcNAc(b1-3)Gal(b1-4)GlcNAc
# Procedure, shortened: as §1
# [13] = biological target: Gal(b1-3)GlcNAc(b1-3)Gal(b1-4)GlcNAc(b1-2)Man(a1-3)[Gal(b1-3)GlcNAc(b1-3)Gal(b1-4)GlcNAc(b1-2)Man(a1-6)]Man(b1-4)GlcNAc(b1-4)GlcNAc
# Procedure, shortened: as §1
# [14] = biological target: Gal(b1-3)GlcNAc(b1-3)Gal(b1-4)GlcNAc(b1-2)[Gal(b1-3)GlcNAc(b1-3)Gal(b1-4)GlcNAc(b1-6)]Man(a1-6)[Gal(b1-3)GlcNAc(b1-3)Gal(b1-4)GlcNAc(b1-2)Man(a1-3)]Man(b1-4)GlcNAc(b1-4)[Fuc(a1-6)]GlcNAc
# Procedure, shortened: as §1
# [15] = biological target: Gal(b1-3)GlcNAc(b1-3)Gal(b1-4)GlcNAc(b1-3)Gal(b1-4)GlcNAc(b1-2)[Gal(b1-3)GlcNAc(b1-3)Gal(b1-4)GlcNAc(b1-3)Gal(b1-4)GlcNAc(b1-6)]Man(a1-6)[Gal(b1-3)GlcNAc(b1-3)Gal(b1-4)GlcNAc(b1-3)Gal(b1-4)GlcNAc(b1-2)Man(a1-3)]Man(b1-4)GlcNAc(b1-4)[Fuc(a1-6)]GlcNAc
# Procedure, shortened: as §1
# [16] = biological target: Gal(b1-3)GlcNAc(b1-3)Gal(b1-4)GlcNAc(b1-6)[Gal(b1-3)GlcNAc(b1-3)]Gal(b1-4)Glc
# Procedure, shortened: as §1
# [17] = biological target: Gal(b1-3)GlcNAc(b1-3)Gal(b1-4)[Fuc(a1-3)]GlcNAc
# Procedure, shortened: as §1
# [18] = biological target: Gal(b1-3)GlcNAc(b1-3)Gal(b1-4)[Fuc(a1-3)]GlcNAc(b1-6)[Gal(b1-3)GlcNAc(b1-3)]Gal(b1-4)Glc
# Procedure, shortened: as §1
# [19] = biological target: Gal(b1-3)GlcNAc(b1-3)GalNAc
# Procedure, shortened: as §1
# [20] = biological target: Gal(b1-3)GlcNAc(b1-6)Gal(b1-4)GlcNAc
# Procedure, shortened: as §1
# [21] = biological target: Gal(b1-3)GlcNAc(b1-6)GalNAc
# Procedure, shortened: as §1
# [22] = biological target: Gal(b1-3)GlcNAc(b1-6)[Gal(b1-3)]GalNAc
# Procedure, shortened: as §1
# Gal(b1-3)GlcNAc6S = biological target: Gal(b1-3)GlcNAc6S
# Procedure, shortened: as §1
# [23] = biological target: Gal(b1-3)[Fuc(a1-4)]GlcNAc
# Procedure, shortened: as §1
# [24] = biological target: Gal(b1-3)[Fuc(a1-4)]GlcNAc(b1-2)Man
# Procedure, shortened: as §1
# [25] = biological target: Gal(b1-3)[Fuc(a1-4)]GlcNAc(b1-2)Man(a1-3)[Gal(b1-3)[Fuc(a1-4)]GlcNAc(b1-2)Man(a1-6)]Man(b1-4)GlcNAc(b1-4)[Fuc(a1-6)]GlcNAc
# Procedure, shortened: as §1
# [26] = biological target: Gal(b1-3)[Fuc(a1-4)]GlcNAc(b1-3)Gal(b1-3)[Fuc(a1-4)]GlcNAc
# Procedure, shortened: as §1
# [27] = biological target: Gal(b1-3)[Fuc(a1-4)]GlcNAc(b1-3)Gal(b1-4)[Fuc(a1-3)]GlcNAc
# Procedure, shortened: as §1
# [28] = biological target: Gal(b1-3)[Fuc(a1-4)]GlcNAc(b1-6)GalNAc
# Procedure, shortened: as §1
# [29] = biological target: Gal(b1-3)[GlcNAc(b1-6)]GalNAc
# Procedure, shortened: as §1
# [30] = biological target: Gal(b1-3)[Neu5Ac(a2-6)]GalNAc
# Procedure, shortened: as §1
# [31] = biological target: Gal(b1-3)[Neu5Ac(a2-6)]GlcNAc(b1-4)Gal(b1-4)Glc
# Procedure, shortened: as §1
# [32] = biological target: Gal(b1-3)[Neu5Ac(b2-6)]GalNAc
# Procedure, shortened: as §1
# Gal(b1-4)Gal = biological target: Gal(b1-4)Gal
# Procedure, shortened: as §1
# [33] = biological target: Gal(b1-4)GalNAc(a1-3)[Fuc(a1-2)]Gal(b1-4)GlcNAc
# Procedure, shortened: as §1
# [34] = biological target: Gal(b1-4)GalNAc(b1-3)[Fuc(a1-2)]Gal(b1-4)GlcNAc
# Procedure, shortened: as §1
binder,measurement,setting,value
B1,glycan array binding signal (z-score),[1],-0.006
same,glycan array binding signal (z-score),[2],-0.029
same,glycan array binding signal (z-score),[3],0.156
same,glycan array binding signal (z-score),Gal(b1-3)GlcNAc,-0.121
same,glycan array binding signal (z-score),[4],-0.271
same,glycan array binding signal (z-score),[5],-0.097
same,glycan array binding signal (z-score),Gal(b1-3)GlcNAc(b1-2)Man,-0.256
same,glycan array binding signal (z-score),[6],0.116
same,glycan array binding signal (z-score),[7],-0.29
same,glycan array binding signal (z-score),[8],0.229
same,glycan array binding signal (z-score),[9],-0.162
same,glycan array binding signal (z-score),[10],0.152
same,glycan array binding signal (z-score),[11],-0.236
same,glycan array binding signal (z-score),[12],-0.078
same,glycan array binding signal (z-score),[13],-0.094
same,glycan array binding signal (z-score),[14],-0.162
same,glycan array binding signal (z-score),[15],0.144
same,glycan array binding signal (z-score),[16],-0.214
same,glycan array binding signal (z-score),[17],-0.207
same,glycan array binding signal (z-score),[18],-0.153
same,glycan array binding signal (z-score),[19],0.061
same,glycan array binding signal (z-score),[20],-0.253
same,glycan array binding signal (z-score),[21],-0.211
same,glycan array binding signal (z-score),[22],-0.035
same,glycan array binding signal (z-score),Gal(b1-3)GlcNAc6S,0.041
same,glycan array binding signal (z-score),[23],-0.135
same,glycan array binding signal (z-score),[24],0.176
same,glycan array binding signal (z-score),[25],0.054
same,glycan array binding signal (z-score),[26],1.49
same,glycan array binding signal (z-score),[27],-0.036
same,glycan array binding signal (z-score),[28],0.357
same,glycan array binding signal (z-score),[29],-0.12
same,glycan array binding signal (z-score),[30],-0.04
same,glycan array binding signal (z-score),[31],-0.191
same,glycan array binding signal (z-score),[32],-0.137
same,glycan array binding signal (z-score),Gal(b1-4)Gal,-0.161
same,glycan array binding signal (z-score),[33],-0.253
same,glycan array binding signal (z-score),[34],-0.183
